Experimental data published in patent US12338291B2, “Humanized antibody molecules to CD138 and uses thereof” (VISTERRA, INC., priority 2019, dated 2025).

Assays:
human CD138 peptide 6A = target: T1, human CD138 peptide 6A (Homo sapiens, UniProt P18827); assay: Antigen capture ELISA, binding to CD138 peptide 6A; details: FIG. 10
T1 construct: Pep6a; 220-245; 17; 26
T1 sequence (P18827 220-245 limits assumed): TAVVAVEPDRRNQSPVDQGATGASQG
Method: 1 or select human CD138 derived peptides (Table 3) was evaluated by antigen capture ELISA. In brief, MaxiSorp™ plates were first coated with antibodies 4320 or BB4 at a 0.5 μg/ml concentration overnight (12-15 hours) at 2-8° C. The immobilized monoclonal antibodies were tested for binding to biotinylated recombinant CD138 extracellular domain or peptides 2A, peptide 6A in 5-fold serial antigen dilutions starting at starting at a 50 nM concentration. HRP-conjugated Anti-biotin secondary antibody (1:10000 dilution) was used for detection.

MM1.S (Luc) cells [1] = assay: In vivo efficacy in MM1.S (Luc) xenograft multiple myeloma model, BLI (Example 4); set-up: species or system mouse
Method: The quantity of emitted light from the tumor after systemic injection of D-luciferin was calibrated to correlate with viable tumor burden. […] For this study, in vivo BLI images were acquired on days 14, 21, 28, 35 and 42.
Anti-CD138 antibodies were dosed intraperitoneally twice weekly (Q3Dx2; 3 off) for five weeks.
Images were analyzed using Living Image 4.3.1 (PerkinElmer, MA) software.
FIGS. 6A-6B summarize the Mean BLI±standard error of the means of disseminated multiple myeloma tumors quantification from IVIS imaging at specific time points and dose levels shown. […] FIG. 6C summarizes percent survival of animals in vehicle group versus animals treated with anti-CD138 antibodies mAb 2810 and 4320. Percent survival was defined as mice surviving to a predetermined euthanasia criterium related to disease-related morbidity, defined as weight loss greater than 20%, severely impaired CNS function, or severely impaired movement or loss of righting reflexes.

CD138+ myeloma cells = assay: Binding to CD138+ myeloma cells (general statement)
MM1.S (Luc) cells [2] = tested on: MM1.S (Luc) cells
CD138+ RPMI 8226 cells = assay: Luciferase-based ADCC reporter assay against RPMI 8226; assay type: cell-based, human; details: 3-fold dilutions from 10 μg/mL, E:T 10:1, 16 h, FIG. 4
Method: In another experiment, the ADCC activity of the humanized variants of anti-CD138 antibody 2810 was assessed. Briefly, the humanized variant antibodies were produced by transient transfection of HEK 293 cells metabolically altered for purposes of reduced Fc fucosylation. The antibodies were then evaluated for antibody dependent cellular cytotoxicity (ADCC) activity against CD138^+ human lymphoblastic myeloma U266 cells in a luciferase based ADCC reporter assay using, as effector cells, engineered Jurkat cells stably transfected with the human FcγRIIIa receptor. U266 cells were incubated with mAbs that were 3-fold serially diluted from a starting concentration of 3 μg/mL and added to effector cells and CD138+U266 multiple myeloma target cells at a cell ratio of effector:target of 10:1. After 16-hour incubation at 37° C., luciferase activity was assessed as a measure of ADCC activity and reported as relative luminescence units (RLU). […]
Second, humanized anti-CD138 antibody variants 3821, 4321, 4320, 4521, 4326, and 3820 were assessed for ADCC activity against U266, MM1.S, LP-1, and RPMI 8226 CD138^+ multiple myeloma cell lines using a luciferase based ADCC reporter assay, as described in Example 15. […] After a 16 hour incubation at 37° C., cellular luciferase levels were quantified as a measure of ADCC activity and reported as relative luminescence units (RLU).

[3] = Differential scanning fluorescence (DSF) thermal stability; assay type: physicochemical; details: PBS pH 7.4, 25-95 °C
Text: Thermal stability represents an important property of antibodies and is used as a predictive surrogate of pharmaceutical drug stability in humans based on a relative stability profile as characterized by differential thermal melting profiles. Several methods exist for evaluation of product stability based on thermal melting. These include, for example, circular dichroism (CD), differential scanning calorimetry (DSC), and differential scanning fluorescence (DSF), among others. In this example, the thermal stabilities of select humanized anti-CD138 antibodies were evaluated by DSF. DSF was used to monitor the conformational stability of a protein as it was exposed to increasing thermal stress. The dye, SYPRO Orange®, fluoresces in a hydrophobic environment, such as hydrophobic core residues that are exposed during thermally triggered protein unfolding, or denaturation. In brief, SYPRO® Orange Dye (Sigma Chemical) was diluted 1:500 in phosphate buffered saline (PBS), pH 7.4, without addition of any detergents. Antibodies were likewise diluted in PBS to a target concentration of 0.5 mg/mL. […] Thermal scans were carried out using a real-time quantitative PCR (qPCR) thermal cycler with fluorescence detection capabilities. […] TMs were then calculated based on transformation of the data using the first derivative of the fluorescence signal versus time. […]

B1: mAb 4320: humanized anti-CD138 IgG1 kappa antibody; VH SEQ ID NO: 471, VL SEQ ID NO: 475; HC SEQ ID NO: 527, LC SEQ ID NO: 528 (antibody)
heavy: QVQLVQSGAEVKKPGASVKVSCKASGYSFSSYYMHWVRQAPGQGLEWMGTIHPSDSTTNYNQKFQGRVTMTVDTSTRTAYMELSSLRSEDTAVYYCANFVYWGQGTTVTVSSASTKGPSVFPLAPSSKSTSGGTAALGCLVKDYFPEPVTVSWNSGALTSGVHTFPAVLQSSGLYSLSSVVTVPSSSLGTQTYICNVNHKPSNTKVDKRV[human IgG1 Fc not spelt out]
light: DIVMTQTPLSLSVTPGQPASISCKSSKSLLYKDGKTYLNWFLQKPGQSPQLLIYVVSTRASGVPDRFSGSGSGTDFTLKISRVEAEDVGVYYCQQLVEYPYTFGQGTKLEIKRTVAAPSVFIFPPSDEQLKSGTASVVCLLNNFYPREAKVQWKVDNALQSGNSQESVTEQDSKDSTYSLSSTLTLSKADYEKHKVYACEVTHQGLSSPVTKSFNRGEC
Binding to peptide 6A (human CD138 peptide 6A): detected at the higher concentration evaluated | Whole body tumor burden (BLI) in comparison to mAb 2810 (MM1.S (Luc) cells [1]; i.p. twice weekly, mAb 4320 4, 8 or 16 mg/kg, mAb 2810 4.0 mg/kg, FIG. 6): discernibly lower tumor burden and higher efficacy | Dose dependency of efficacy (MM1.S (Luc) cells [1]; mAb 4320 at 4, 8, 16 mg/kg): did not demonstrate a dose dependency | Binding to CD138+ myeloma cells (CD138+ myeloma cells): sub-nanomolar | Change in body weight (MM1.S (Luc) cells [2]; FIG. 21): upward trend in mean body weight | Mean body weight change (MM1.S (Luc) cells [2]; FIG. 21): less than 5% | Survival (animals remaining on study to end of study) (MM1.S (Luc) cells [2]; day 73, treatment discontinued day 53): > 50% and 56% | Incidence of complete or partial regression (MM1.S (Luc) cells [2]; end of dosing phase): 22% | Tumor growth delay (time to BLI 1.0×10^9 p/s) (MM1.S (Luc) cells [2]; mAb 4320 4 mg/kg, bortezomib 1 mg/kg i.p. twice weekly): 13.9 days | Animal deaths in treatment groups (MM1.S (Luc) cells [2]; mouse, in vivo): No animal deaths | Incidence of complete regression (MM1.S (Luc) cells [2]; mouse, in vivo): 22% | Treatment-related death (MM1.S (Luc) cells [2]; mouse, in vivo): No treatment-related death | ADCC activity (RLU) (CD138+ RPMI 8226 cells): induced ADCC activity | TM1 ([3]; first thermal transition): 68.9 °C | TM2 ([3]; second thermal transition): 77.7 °C

Where “and” joins values, the source holds several entries; their conditions need not be identical. Equal values may be shown once.
